# Over roughly 33,000 sequences, “E-score (-0.5 to 0.5)” has its median near -0.013; the highest 2% begin near 0.3. The list shows a part of the results.
# Molecular target: T1, Msn1 (UniProt P22148)
# T1 sequence: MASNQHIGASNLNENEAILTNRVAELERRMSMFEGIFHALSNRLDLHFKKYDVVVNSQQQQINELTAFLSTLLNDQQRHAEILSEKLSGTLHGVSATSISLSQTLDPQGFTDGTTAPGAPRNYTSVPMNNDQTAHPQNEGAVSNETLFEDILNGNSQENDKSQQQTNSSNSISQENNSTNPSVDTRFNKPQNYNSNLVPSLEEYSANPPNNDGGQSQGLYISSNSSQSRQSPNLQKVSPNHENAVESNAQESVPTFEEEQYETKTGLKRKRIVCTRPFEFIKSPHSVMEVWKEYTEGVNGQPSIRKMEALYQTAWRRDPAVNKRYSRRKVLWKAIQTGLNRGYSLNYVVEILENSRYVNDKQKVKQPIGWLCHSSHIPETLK
# Test: PBM E-score (8-mer binding enrichment) (E-score (-0.5 to 0.5)); higher = stronger / more preferred TF binding; most listed sequences are background and not binding sites
# Conditions: protein concentration: 200 nM; construct: GST-full length
# Outline: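 Bound GST-tagged yeast transcription factors, applied at about 100-200 nM to double-stranded universal all-10-mer Agilent arrays, were detected with fluorescent anti-GST. Scans were normalised with masliner. A modified Wilcoxon-Mann-Whitney statistic, the E-score, was assigned to each ungapped eight-base word pooled with its reverse complement by the Universal PBM Analysis Suite.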
row,Sequence,PBM E-score
1,AGTCAATA,0.0732
2,TTAACTAA,0.237
3,TCCCCACA,-0.272
4,GCAAAGTA,-0.00765
5,AACCTGGG,-0.208
6,AAGGTTGT,0.152
7,CCCGCACA,-0.111
8,GGGTTCTA,-0.239
9,AAAGCTTG,-0.0281
10,AGTGAGGA,-0.0425
11,AAAAGCCC,-0.0247
12,AATACCCT,-0.184
13,CATACGAG,-0.191
14,CTTCTATA,0.0349
15,GCGCAGGA,-0.168
16,CCTTACCC,-0.265
17,CGGGCACA,-0.0904
18,CTCCAGGA,-0.147
19,GCCGATAA,0.0805
20,AACATGTT,-0.0343
21,CACGGAGA,0.0495
22,TAAAATCA,0.14
23,CGACCGCC,-0.1
24,TAATTGGA,0.123
25,AAGTTTCG,-0.0881

row,Sequence,PBM E-score
1,AAGTGATA,-0.052
2,ACCTCAAT,0.0935
3,CGAATATA,0.107
4,CGATCAGA,-0.194
5,AGTACTTG,0.147
6,TTCAGAAA,0.128
7,CAAGCCTC,-0.152
8,CCAAACCC,-0.00239
9,AACAGGCC,-0.14
10,ATGTAATG,0.111
11,CGGGGCGC,-0.188
12,ACGGCGGG,-0.105
13,GGAGCAAA,0.0273
14,ATGCGCAG,-0.106
15,ATAGGATA,0.0217
16,AGTCCCTA,0.123
17,GGGTCAAA,-0.0608
18,GTTTCCAA,-0.0509
19,CTAACAAC,0.139
20,ACGTATAG,0.0562
21,GACTAAAA,0.23
22,AACTTACC,-0.0315
23,ATGCGGCA,-0.0525
24,AAAGTAGA,-0.042
25,GATCGCTA,-0.0252

row,Sequence,PBM E-score
1,GCACTGGA,-0.0294
2,GCCAATCC,-0.122
3,CTCAGGGA,-0.218
4,CTCGACGA,-0.0478
5,CCTGCTCG,-0.177
6,AGAGTGCC,-0.0595
7,GCAATTTA,0.0402
8,CGGCGGAG,-0.0611
9,CTAAGGGC,-0.154
10,GTCTAATA,-0.0152
11,TCGGGAAA,0.176
12,TATGATAA,0.179
13,AAACGCAT,-0.0841
14,CCATCCGA,-0.00896
15,ATTTGACA,0.187
16,ATAATCAA,0.121
17,CCCGACTA,-0.127
18,CGGATAAA,0.12
19,CGCTCTAC,-0.0195
20,ACTTTACA,-0.0742
21,TATTGGAA,-0.0155
22,ATTGCCGG,-0.0182
23,CAGCGCAC,-0.04
24,AGGCTCGG,-0.224
25,GTCTGATA,0.158

row,Sequence,PBM E-score
1,AGAAACCG,-0.0471
2,GCAGGGGC,-0.233
3,ACAAACGC,0.172
4,CGAACCCG,-0.196
5,CAATAGGA,0.112
6,ACGCCGAA,0.177
7,CGAAACCA,0.147
8,ACCGATAT,-0.0498
9,CATCAATA,0.1
10,AACATTAC,-0.108
11,AAGAGACT,-0.0952
12,CCATTCGG,0.0398
13,AACAACAC,-0.00375
14,CTCGGTAA,0.129
15,AGATATCT,0.146
16,ACTAGGGA,0.00908
17,ACTACCAT,0.0464
18,AGATGGGC,-0.168
19,TAGTAATA,0.104
20,AAGCTTAT,0.111
21,AATTAAAC,0.166
22,CACGAATA,0.0663
23,CAAAGTAC,0.0575
24,GCAAGGAA,-0.122
25,AGGCTTAG,-0.0844

row,Sequence,PBM E-score
1,GCGTCTAC,-0.0433
2,ACCCGTAT,0.0862
3,AGATTCTA,-0.0122
4,ATACTACG,-0.0292
5,AGCGGGCG,-0.0758
6,CAGCCATC,-0.215
7,ACCACTTA,-0.0118
8,GCAGGAGA,-0.266
9,CAGGTCGG,0.01
10,CTTATTGA,0.0963
11,GACCCAGC,-0.279
12,CTATCCGC,0.127
13,ATGATAAG,0.00016
14,AATAAGGT,-0.091
15,ACAAGCGT,0.0435
16,ATCTAGGA,0.18
17,ATTCCGCC,0.2
18,CAAACAGA,0.147
19,CGGCTCCA,-0.109
20,ACCAATTC,-0.044
21,CCAGTGCG,-0.278
22,CATGTTGC,-0.195
23,ATCTTTAG,-0.0847
24,CGATGACC,0.0689
25,CGTCCTGC,-0.235

row,Sequence,PBM E-score
1,ACAGCGAT,-0.1
2,AGTCGCGC,0.191
3,CCACTCGG,-0.112
4,TATACGCA,0.0336
5,CCGATGAC,0.102
6,CTGATGCA,-0.0911
7,ATGAATCC,0.124
8,GCATTCCA,-0.224
9,AAAACTAA,0.251
10,ATGGTGAA,-0.0757
11,CGCGAAAC,0.0633
12,CGTACGTA,-0.141
13,AGCGCAGA,-0.035
14,AATATCGA,0.145
15,GTTAAGTA,0.0893
16,CGCATCCC,-0.229
17,CTCATATA,0.0148
18,AAACTATT,0.171
19,GATCCGGC,-0.0512
20,ACGGGCCT,-0.271
21,CACGGGAG,-0.247
22,CAGCCGAA,-0.0187
23,CGCCGGTA,-8e-05
24,CGGTGTGC,-0.248
25,ACGGCTTG,-0.0549

row,Sequence,PBM E-score
1,ATTCCTAG,0.133
2,GGTTGAGA,-0.0154
3,TAAAAAAA,0.206
4,ACTGTACA,-0.0175
5,CACGCCGC,-0.234
6,CGCCGACA,0.0624
7,AGCGTGTC,0.0384
8,ACTTCTAC,0.0998
9,TATCTGGA,0.0791
10,AACGTGAG,-0.0307
11,AAGGCAGG,-0.208
12,CTATATAA,0.153
13,CAGCCAAC,-0.203
14,CGGACCCA,-0.199
15,CAGAACTG,0.0993
16,AATATTCT,0.113
17,AGCGGTAT,0.102
18,AGGTCAAT,-0.00203
19,GTGCATCA,0.0556
20,GGCAGCTA,-0.0328
21,AGAGCGTC,0.052
22,GGCGCTAC,-0.247
23,AAAGGCGA,-0.11
24,CGGATCGA,-0.0456
25,ACACGGTG,-0.0679

row,Sequence,PBM E-score
1,ATTCAGGC,0.0647
2,CCAACCCA,-0.276
3,ACGACCAT,-0.0215
4,CCACGGTC,-0.251
5,TCGCTGAA,0.027
6,CTACTTCA,-0.0578
7,CGCACCAC,-0.143
8,ATAAGTGG,-0.00696
9,AACGTGCG,-0.0984
10,CGAATTAG,0.225
11,GCGGACTA,0.104
12,GGGTATAC,0.0534
13,CACCTTCG,-0.0896
14,ATACATTG,0.159
15,ATGTAGGC,-0.0581
16,AGGCAACA,-0.161
17,AGGCGGAA,0.116
18,GGGCGGTA,-0.245
19,TCGCACAA,0.00785
20,CAAGTGCA,-0.199
21,ATCGTATA,0.0606
22,AATTACAC,-0.0462
23,ATTATAGG,0.176
24,AAACCAAC,-0.0285
25,ACTGACCA,-0.00452

row,Sequence,PBM E-score
1,ATGGCGGC,-0.0603
2,AAACCTAT,0.166
3,GCAATTAC,-0.121
4,TAATCAAA,0.19
5,CAATAAGG,-0.19
6,CCTCTACG,-0.213
7,GCAGATCA,-0.165
8,CCTCCGGC,-0.185
9,ACCAGGAT,0.116
10,TCCTGACA,0.255
11,CTATATGA,0.114
12,ACACCAAT,0.0822
13,ACAACCCT,-0.04
14,ATTTGAAA,0.26
15,ACCGTACG,-0.0654
16,GGATCGAC,-0.051
17,CCAAAGGA,-0.03
18,ACATCAAA,0.0756
19,ATCCGGAT,0.217

# Source: the supplement of paper PMC3334620
